# Measurements reported in the supplement of paper PMC11417369.
# ± gives the standard deviation of the averaged measurements. The list shows a part of the results.
# System: PfAP2-G AP2 domain (GST-tagged)
# Assay: gcPBM binding intensity (ln(normalized median fluorescence intensity)); higher = stronger DNA binding
# How it was run: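 Probes on an Agilent 4 × 180k array were primer-extended, double-stranded and 36 bp long, taken from intergenic genomic regions, with negative controls added. GST-tagged P. falciparum DNA-binding domains from E. coli, about 25 μg on average, were applied to the array for 1 h in 1× PBS containing 1% milk, 0.2 mg/ml BSA, 0.5% salmon testes DNA and 0.03% Triton X-100. Binding intensity, obtained after Alexa488 anti-GST antibody detection and a 488 nm scan, is the highest Masliner-normalised natural-log median intensity across replicate spots of either probe orientation.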
row,Sequence,gcPBM binding intensity (ln)
1,ATCATGGAAAAAACAAATGGGCTACATTACCTTTTG [GTGCAC_negctrl_site487],10.2 ± 0.16
2,TTGGAGTTCATATGTGGTACACATTTAAATATATTT [XGTACX_site5582],11.6 ± 0.97
3,GATATAAACGTATATGTACATATATATATATATATA [GTGCAC_negctrl_site186],11.3 ± 0.57
4,ATATATACATAGAATTGTACATAATTTATGTTCATT [XGTACX_site7426],10.8 ± 0.3
5,ATAATAAATGTCTTCAATGAAGTGGAAATGCTGTTA [TGCATGCA_negctrl_site238],10 ± 0.2
6,AAAAGGATTTTTTATACACACACTAACTAATGTATA [CACACA_site2356],9.985 ± 0.078
7,TCTTGTTATAATAATCAATATATGGGTATACTTATG [CACACA_negctrl_site1618],10.04 ± 0.099
8,AAAAAAATAAATAAGACACACACAAAAAAAAAAAAA [CACACA_site8404],9.81 ± 0.38
9,TTTTTTTTTTTTTTCTGTACTGATACTTATAGAGTT [XGTACX_site4736],11 ± 0.92
10,TAAATAATAATAAAATGTACATTATATATGTATATG [XGTACX_site8672],10.8 ± 0.42
11,TATTACTTTATATATACACACATATAACATAAATGC [CACACA_site3948],10.2 ± 0.23
12,CAGGTTCTTATATAGTGTACTATAGACATTCAATTG [XGTACX_site7239],11 ± 0.57
13,AAATAATAAATATATCGTACAAATATCATATATAAA [XGTACX_site2771],10.7 ± 0.38
14,TTTTTTCTTTTTATAACACACAGGTGAAAAATAATA [CACACA_site1850],10.1 ± 0.32
15,TCCTGTTGAGAATGGCGTACATATAAATATTATATA [XGTACX_site1841],11.5 ± 0.95
16,TTTCCTCATTTTATCATACACACTTGTTTATATGTG [CACACA_site8202],10.15 ± 0.021
17,TTTTATTCATCATATTGTACATTCTTGTATTTATAG [XGTACX_site8534],11 ± 0.48
18,CTTTTGCCCAAAAAGGTACACACCACAAAGTACATA [CACACA_site8169],11.9 ± 1.2
19,TATTTATAATTAAATACACACATATATTATAGATTT [CACACA_site6435],9.75 ± 0.18

row,Sequence,gcPBM binding intensity (ln)
1,TTGTATATACTATACACACACATACATACATACATA [CACACA_site814],10.2 ± 0.18
2,ATATACTTACATATTACACACAATATTTTTAAATGG [CACACA_site5916],10.04 ± 0.078
3,GAGATATAAAAGTGTACACATATTGTTATCCATATT [CACACA_site5441],11.8 ± 1
4,ACCCATATTCTTTTTACACACTTGAATAAAAAATAT [CACACA_site4797],10.2 ± 0.3
5,CACACTTTATAATGTTGTACGATACATTATACCAAA [XGTACX_site941],11.1 ± 0.54
6,ATCTCAAATATAATAAATTATTAGGTATATATATAT [CACACA_negctrl_site1828],9.96 ± 0.28
7,TATATATATATATATACATGCATACAATTTTATGAG [TGCATGCA_site466],10.2 ± 0.65
8,AATAAAAAATAAAAAAGTACATGATGAAAAGGTTTA [XGTACX_site7615],11.4 ± 0.8
9,TCCCTGATGTTATTTAATATACCATAAAAAAAAAAA [CACACA_negctrl_site1472],10.1 ± 0.45
10,TATATATATACAGTAGTGCATATATTTAAAATATAT [GTGCAC_site9999],10.2 ± 0.2
11,TATATATAAAAATATACACACTGTATTATTGTAATA [CACACA_site5959],9.79 ± 0.014
12,ATATATAAAAATAAATGTACATATTCATATGATGAT [XGTACX_site3411],11.2 ± 0.57
13,TTTTAAAAAAAAAAAAAATAAGATAAAATTAAATAA [GTGCAC_negctrl_site367],9.34 ± 0.26
14,ATAAAAAATATCACATAAAATAAAAAAAGAAAGGAT [XGTACX_negctrl_site294],9.995 ± 0.035
15,ATATAAGTATATCTATGTACATACAATATAAATGTA [XGTACX_site2153],11.2 ± 0.77
16,TATATACATACATATTGTACTTATAAAGATTAATTT [XGTACX_site2203],11 ± 0.61
17,TTATTATTATTACTTACGCACACTTTTTTTTTTATT [CACACA_site411],10.27 ± 0.028
18,ATCAAAAGAAGACACACACACATACCTATAAATATA [CACACA_site7736],10.1 ± 0.13
19,AATAGTTATTCCAGGTGTACATAACATATAATTTAC [XGTACX_site1340],11.5 ± 0.95

row,Sequence,gcPBM binding intensity (ln)
1,GACAATTATATGTAGGTGCATATACAAATTTTTTAA,10.1 ± 0.25
2,ATAGGATATTATTCCTGTACATATATATATATATAT [XGTACX_site2108],10.9 ± 0.64
3,AATCTTCTTAATTGTAGTACACAATTTATAAACAAA [XGTACX_site8706],11.6 ± 1
4,AAAAATCATTTAAGAACACACAAATATTTCCATTAA [CACACA_site1488],9.9 ± 0.014
5,TACATAAATTTTAATACATGCAAATAAAATATATAA [TGCATGCA_site131],9.84 ± 0.24
6,ATATATATATATATATGTACATACAATTATATTCTC [XGTACX_site1133],11.2 ± 0.61
7,TTTTTTGTTACAACAGTGCAAAAAAACCTTAATGTT,10.1 ± 0.24
8,ATAACGAACACTATTACACACATACATACATATGTA [CACACA_site5092],10.17 ± 0.099
9,AAAAAAAAAAAAAACACACACACATAGACCTCCAAT [CACACA_site3563],10.4 ± 0.26
10,TTTTCTGTGTTTACATGTACGAAAGATTAATATTAT [XGTACX_site5214],10.9 ± 0.58
11,ATTTGATAGACACATGCACACATGCAATACTTTATT [CACACA_site5633],10.1 ± 0.042
12,TTATCATATCATGGAAGTACAAATAAAATATATAAC [XGTACX_site1608],11.3 ± 0.81
13,TCTTTATTATTCGCCACACACATATAAATATAAATA [CACACA_site7441],10.3 ± 0.26
14,ATAATTTTGTATAATTGTACATTATTTTAAATAAAT [XGTACX_site7952],11 ± 0.5
15,AAAACATAACATTGTTGTACTACTAATAAAATAAGT [XGTACX_site6149],11.5 ± 0.88
16,TTTTTTTTTTTTTTTAAACACACGGTGTGAAAATTA [CACACA_site3818],9.8 ± 0.5
17,ATCAATCATGGTTTTACACACACATGCATGTGAAAA [CACACA_site1350],10.1 ± 0.21
18,TATATAAAAATATACACACACAAATGTATATATATA [CACACA_site220],9.9 ± 0.26
19,TACATACATACATACACACACATATAGATTTATATA [CACACA_site6999],10.4 ± 0.15
